# In the supplement of paper PMC3334620:
# Over roughly 33,000 sequences, “E-score (-0.5 to 0.5)” has its median near -0.035; the highest 2% begin near 0.34. The list shows a part of the results.
# Target: T1, Mot3 (UniProt P54785)
# T1 sequence: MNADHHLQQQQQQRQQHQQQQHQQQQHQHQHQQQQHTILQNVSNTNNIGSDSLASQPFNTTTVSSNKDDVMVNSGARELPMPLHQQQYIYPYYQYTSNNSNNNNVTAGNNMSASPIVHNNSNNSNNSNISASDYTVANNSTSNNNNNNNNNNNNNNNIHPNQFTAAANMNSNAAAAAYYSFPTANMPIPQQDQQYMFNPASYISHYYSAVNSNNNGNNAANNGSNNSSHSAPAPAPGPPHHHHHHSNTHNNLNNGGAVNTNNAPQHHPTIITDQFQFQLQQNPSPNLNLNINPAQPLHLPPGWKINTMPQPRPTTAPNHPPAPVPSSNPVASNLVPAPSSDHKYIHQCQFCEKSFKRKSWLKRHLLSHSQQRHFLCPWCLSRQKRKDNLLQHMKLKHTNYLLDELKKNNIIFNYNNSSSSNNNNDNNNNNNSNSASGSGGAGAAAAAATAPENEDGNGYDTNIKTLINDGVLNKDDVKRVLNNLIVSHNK
# Assay: PBM E-score (8-mer binding enrichment) (E-score (-0.5 to 0.5)); higher = stronger / more preferred TF binding; most listed sequences are background and not binding sites
# Settings: protein concentration: 200 nM; construct: GST-full length
# Summary of the method: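 Full-length yeast transcription factors or their DNA-binding domains, GST-tagged and expressed with PURExpress, were applied at about 100-200 nM to universal all-10-mer Agilent arrays. These arrays had been made double-stranded by primer extension on fresh or once-stripped slides. Detection used fluorescent anti-GST, normalisation used masliner, and E-scores for ungapped eight-base words pooled with reverse complements came from the Universal PBM Analysis Suite.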
row,Sequence,PBM E-score
1,CGGTAGGC,0.0651
2,GTGGCTTA,-0.00462
3,GAGGCTTA,-0.166
4,CGCAGTCC,-0.23
5,CTTCCAAC,0.0652
6,TTTTAAAA,0.115
7,AGTGTACA,0.273
8,AGGGGAGA,-0.14
9,GCACGCAC,-0.102
10,TCACGCGA,0.0705
11,AACGGGAG,0.06
12,CCCCTTAA,-0.0659
13,TCTCGGCA,-0.155
14,ACACATAA,0.271
15,CCTCGAGA,-0.00989
16,ACCTCACT,-0.11
17,ACACGTAG,0.287
18,TAGACGGA,-0.142
19,AAGCTGCT,-0.0746
20,GCGGGACC,-0.243
21,GAGCTTTA,-0.0371
22,ATGTCAGA,0.0802
23,AGATATCC,-0.144
24,AAATGATT,0.113
25,GTAAAGGA,0.257

row,Sequence,PBM E-score
1,CACTTGAG,-0.231
2,ACCCCCTA,-0.298
3,AGGGACAA,-0.26
4,ACGATCGC,-0.0801
5,AGCGAACA,-0.0143
6,CTACTGGA,-0.174
7,TCCGTGAA,0.0477
8,GGGCCTTA,-0.0405
9,GCCGGGCC,-0.225
10,ACGAATAA,0.0326
11,GCGAGGCC,-0.309
12,ACCAACCG,-0.16
13,GACCAGAA,-0.0574
14,GCAGAACA,0.121
15,GTACGAAC,0.0908
16,AGCCCCCA,-0.18
17,TCCTTGCA,0.00059
18,AGGTCTCG,-0.126
19,GTTTCGAA,-0.124
20,GCGCTCCC,-0.343
21,CGCCGGGA,-0.395
22,CATGTATA,0.376
23,TCCTGGCA,0.00434
24,ATGTTTGA,0.155
25,CACGAACA,0.114

row,Sequence,PBM E-score
1,ATAACGTA,0.26
2,ATGCTGTG,0.183
3,TAAGAGCA,0.0808
4,CCCCTGGA,-0.289
5,CAATAAAG,-0.124
6,ACGCGCAT,0.122
7,GCTTAGAC,-0.109
8,CCAAGGCC,-0.14
9,ATGAGTGG,-0.24
10,GCGAATCA,-0.121
11,GACAATTA,0.118
12,ACGAGGCG,0.0932
13,AGATAGCT,-0.164
14,CCGAGGAG,-0.223
15,CGGAGTAG,-0.199
16,AGTTGAAC,-0.065
17,TGCTCACA,-0.033
18,AGTGTTTC,0.0895
19,ATACTCGG,-0.127
20,AAGAATAC,0.176
21,GCGCACGC,-0.268
22,ATTCGAAC,0.103
23,GCAGGCGC,0.361
24,AAGGCCCC,0.169
25,GACTCTGA,-0.183

row,Sequence,PBM E-score
1,GTCGGGGA,-0.0572
2,TGGATGAA,0.0773
3,CGCCCCCG,-0.351
4,ACTTACGC,0.244
5,CGGGGACG,-0.163
6,AGTGTAAC,0.128
7,GCCACACA,-0.182
8,CACGCACA,0.211
9,GAAGAATA,0.116
10,ACTGTGTC,0.112
11,AATTAGGG,-0.075
12,ACGAACAA,0.284
13,CAATGGTA,-0.126
14,CTGGCTAA,-0.174
15,AGGGAGCC,-0.0527
16,ACAATCAC,0.0115
17,GACTCACA,-0.0406
18,CTGAACAG,-0.0714
19,AGTCACTC,-0.0206
20,AGTTGATA,0.0115
21,CTCGATCA,-0.121
22,ACGCGAAA,0.112
23,CAGATAAG,-0.00474
24,GGTATTCA,-0.0225
25,AGCACTCC,-0.0737

row,Sequence,PBM E-score
1,CACCTGTC,-0.194
2,ACAGGGCA,0.205
3,GTCTTATA,-0.0865
4,CCCGCTGC,-0.0487
5,CGCGCTGC,-0.0871
6,GCGCTGCA,-0.162
7,GTCCCGCA,-0.155
8,CTGGAACA,0.115
9,ACGGTCCC,-0.368
10,AGCAAACC,-0.0227
11,GCCGGCTA,-0.171
12,CGGTCACG,-0.286
13,AGCTAAAC,-0.0893
14,CGTCCTCC,-0.293
15,CGTTATGA,-0.0228
16,AAAACTGT,0.0347
17,AAACTTAC,0.221
18,ATCTAGTC,-0.164
19,GACGCTAA,-0.251
20,GCACTGCA,-0.0192
21,ATGGGATC,-0.0784
22,CCCCACCA,-0.182
23,AGAGTCGA,-0.216
24,CTGACGAA,-0.0256
25,GCACGCTA,-0.0188

row,Sequence,PBM E-score
1,CTTGGTCA,-0.139
2,GCGGAAGA,-0.148
3,CGCTCATC,-0.146
4,ATATCCCC,-0.194
5,GGGTCACC,-0.141
6,AGCGGGAG,-0.224
7,CAGATCGC,-0.228
8,AGCAGCTC,-0.343
9,ATGGGTCC,-0.266
10,AGGGCTAC,-0.181
11,TGTTTAAA,0.292
12,GCGGCCCC,-0.371
13,TATGGGCA,0.0963
14,CGCGTGTC,0.196
15,ATTTTAGC,0.00675
16,GGATTTCA,-0.191
17,ATCTGGAC,-0.178
18,AGGTCAGG,-0.136
19,ACAGCTAA,0.0405
20,ATTAGGTG,0.0372
21,ACCTGGTA,0.061
22,GAACAAGC,0.245
23,ATCATTAG,0.0699
24,ATCATACA,0.0292
25,GAAAAGCC,-0.338

row,Sequence,PBM E-score
1,CGGCTGGA,-0.393
2,ACGCCCAA,0.081
3,AGTGAATA,0.206
4,GGCGCAAC,-0.0748
5,AAAGTAAC,0.123
6,ACCTCTAG,-0.0785
7,AGTAATAC,0.111
8,AGGCGCCC,0.186
9,CGACAGTA,-0.196
10,AGTACATC,0.166
11,ACAAAGTA,0.101
12,ATATTGCC,0.211
13,AACACACC,0.305
14,AATTCCCT,-0.0506
15,GGCACCAC,0.338
16,CATTGCGC,-0.0779
17,GCGAGTAA,0.146
18,ATAGACCA,-0.221
19,TCCCCAGA,-0.131
20,ATCACCGA,-0.0688
21,TAAGTATA,0.104
22,ACCAGTGC,0.0131
